The source of these data is the supplement of paper PMC11417369.

The other results are listed elsewhere or left out.

For the test, the system named is PfSIP2 AP2 domain 1 (GST-tagged). The test is described as follows: gcPBM binding intensity (ln(normalized median fluorescence intensity)); higher = stronger DNA binding. The gist of the method: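 After 1 h on an Agilent 4 × 180k array of primer-extended double-stranded 36-bp intergenic genomic probes and negative controls, bound GST-tagged P. falciparum DNA-binding domains were detected with Alexa488 anti-GST antibody and scanned at 488 nm. The domains had been expressed in E. coli, and binding took place in 1× PBS with 1% milk, 0.2 mg/ml BSA, 0.5% salmon testes DNA and 0.03% Triton X-100. Binding intensity is the highest Masliner-normalised natural-log median intensity across replicate spots of either probe orientation.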
Regarding “TATTTTTTTCTTACTACACACATATAGATGCTTTCC [CACACA_site7825]”, the “gcPBM binding intensity (ln)” value is 6.98.

On to “ACATAAATTTAATACACACACAAAGAAAAAAAAAAA [CACACA_site4088]”, for which the “gcPBM binding intensity (ln)” value amounted to 7.02. Next, “TAATATAATATATATACACACAAGAAATACAAAACG [CACACA_site1378]”: 7.65; “ATATTATTATAATATACATATATATATATAATATAT [CACACA_negctrl_site480]”: 7.33; “TATATATATAATTAAAGTACATATAACCACAAAAAT [XGTACX_site7289]”: 7.78. Next, “AACAGATATATATGTAGTACATGTTCTAGATATTTT [XGTACX_site1208]”: 7.07. As to “AATAATTGTTAAAGGTGTACAATACGTATGTAAGAA [XGTACX_site1328]”, the “gcPBM binding intensity (ln)” value came out at 7.68. Consider “AATATAAACATAGATAGATAAATAAATAAATAAACA [GTGCAC_negctrl_site567]”, for which the “gcPBM binding intensity (ln)” value was 7.01. On to “TATCATTTTGTATATAGTACATATATAAAATCGTTA [XGTACX_site3875]”, for which the “gcPBM binding intensity (ln)” value was 6.94.

With “AAAAAAAATAAAAATAAAAATAAAAATAAAAATAAA [GTGCAC_negctrl_site437]”, the “gcPBM binding intensity (ln)” value was found to be 6.72. The figure for “CAAGCACCCAGACACACACACACACCCACACCCACA [CACACA_site369]” is 8.12; for “ATAAAAATAACATATAAACACACATATATATATATA [CACACA_site9267]” it is 9.45. The figure for “AGTCATTAAATATAATGTACATGGAAAAACAGCTGA [XGTACX_site7944]” is 7.03; for “GGAATATTTATACATACACACATATATTTATTTATA [CACACA_site6883]” it is 7.19. As for “ATGTAGACATAATGGGGTACAAAAAAAAAAAAAAAA [XGTACX_site881]”, the “gcPBM binding intensity (ln)” value is 7.21. Take “ATATTACCCATATATGCACACATTGTAGTTATTTAT [CACACA_site2636]”: the “gcPBM binding intensity (ln)” value turned out to be 8.65.

In the case of “TTTTGTAGCAAAAAATAGGAAAAAAAAAAATTAAAT [GTGCAC_negctrl_site8]”, the “gcPBM binding intensity (ln)” value was 6.81.

In the case of “ATATAATTACCATATGGTACACACATATATATATGT [XGTACX_site7393]”, the “gcPBM binding intensity (ln)” value turned out to be 7.25.

TTAAGATACAAAAAAGTGCATATTTTTTAACAAAAA: the “gcPBM binding intensity (ln)” value is 9.95.

With “AAAAAAAAAAAAAAAACACACATAAATAGCTCAAAT [CACACA_site3973]”, the “gcPBM binding intensity (ln)” value was 7.67. Next, “CACATACCCATACAAACACACATTATATATATATAT [CACACA_site4965]”: 9.25; “ATATCGTGTGCATTAACACACATTTATTTGAATAAA [CACACA_site7162]”: 7.65. Take “GATATATAAATAGATACACACATACATACATACATA [CACACA_site6260]”: the “gcPBM binding intensity (ln)” value was determined as 7.18. For the sequence “TACGATTAAAAAAAATGTACAGATTTTTATAGAATA [XGTACX_site6561]”, the “gcPBM binding intensity (ln)” value is 6.9. Next, “ACAAATAAAAATATTACACACACTATTCTAGTGATA [CACACA_site6812]”: 6.91.
